Laboratory results taken from PubChem BioAssay AID588855 (National Center for Advancing Translational Sciences (NCATS), 2011).
Several values for one entry are separate records, joined by “and”; a condition that tells them apart may be missing. Identical values can stand only once. Screen size: about 410,000 compounds; about 5,000 (1.2%) were called active. Inconclusive results, whose numbers are uncertain, are shown with a selection of clear calls. Calls come from the whole dose curve; as a rule, active = well fitted inhibition curve with a large enough effect; inconclusive = small, poorly fitted or top-dose-only effect; inactive = no such curve, though single readings can be large or run the other way. Where the call is inconclusive, the potency comes from a doubtful curve fit.

Assay: qHTS for Inhibitors of TGF-b; note: nearly all actives have a fitted effect of over 65% in size
Settings: HepG2 CAGA-GFP TGF-b/SMAD3 reporter, GFP fluorescence, 18 h, TGF-beta stimulated, 500 pg/mL final; series mostly up to 46.1 µM
In short: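 Inhibition of TGF-beta-driven CAGA-GFP reporter expression in HEPG2 cells is measured by cellular GFP fluorescence after 18 h stimulation with 500 pg/mL recombinant TGF-beta in 1% FBS medium at 37 degrees C.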
Potency is the fitted concentration of half-maximal effect; tags give direction and shape of the fitted curve.

Structure (SMILES) | Potency
CC(C)(C)c1ccc(C(=O)O[C@H]2[C@H](Cc3ccccc3)NS(=O)(=O)[C@H]3C[C@@H]4C=C[C@]23O4)cc1 | inactive
CCN(C(=O)CSc1nc2ccc(Cl)cc2[nH]1)C1CCS(=O)(=O)C1 (stereo unspecified) | inconclusive: 3.98 µM [inhibitor, partial curve, poor fit]
COc1cccc(-c2csc(N3CCN(C(=S)Nc4ccc(Cl)cc4)CC3)n2)c1 | inconclusive: 35.5 µM [inhibitor, single point]
O=c1c2cnn(-c3ccc(Cl)cc3)c2ncn1Cc1cccc(C(F)(F)F)c1 | inactive
COc1ccc(NC(=O)CSc2cc(-c3ccccc3)nc(C)n2)cc1 | inconclusive: 35.5 µM [inhibitor, single point]
COc1ccccc1N(C(=O)c1ccco1)C(C(=O)NC1CCCC1)c1cccnc1 (stereo unspecified) | inconclusive: 35.5 µM [inhibitor, partial curve, poor fit]
Cc1ccc(Cl)cc1NC(=O)Cn1c(=O)n(Cc2ccc(C(=O)NCc3ccc4c(c3)OCO4)cc2)c(=O)c2ccccc21 | inconclusive: 0.251 µM [inhibitor, full curve, poor fit]
CCN(Cc1ccccc1)C(=O)c1cc2c(s1)-c1c(C)cccc1OC2 | inconclusive: 35.5 µM [inhibitor, single point]
O=C1/C(=N\S(=O)(=O)c2cccs2)C([n+]2cccc(Cc3ccccc3)c2)=C([O-])c2ccccc21 | inconclusive: 2.24 µM [inhibitor, partial curve, poor fit]
CCOc1cccc(CN2CCC(n3nccc3NC(=O)CCCc3ccccc3)CC2)c1 | inconclusive: 3.98 µM [inhibitor, partial curve, poor fit]
CCN(CC)c1ccc(/C=N/NC(=O)Cc2nnc(NC(=O)Nc3ccccc3)s2)cc1 | inconclusive: 15.8 µM [inhibitor, single point]
O=C1c2cccc3cccc(c23)C(=O)N1CCN1CCN(CC(O)COCc2ccc(Cl)cc2)CC1 (stereo unspecified) | active: 14.1 µM
COc1ccc(Br)cc1CNc1ccc(O)cc1 | inconclusive: 35.5 µM [inhibitor, single point]
CC(=O)N1CCC(N2CCN(Cc3ccc(C)cc3)C(CCO)C2)CC1 (stereo unspecified) | inconclusive: 35.5 µM [inhibitor, single point]
NCCCC[C@@H](C(=O)N1CCNCC1)n1cc([C@@H](N)CO)nn1 | inconclusive: 0.1 µM [inhibitor, full curve, poor fit]
CC(=O)N1c2c(cc(Br)cc2S(=O)(=O)N2CCN(c3cccc(Cl)c3)CC2)CC1C (stereo unspecified) | inconclusive: 5.01 µM [inhibitor, full curve]
COc1cccc(N2CCN(C(=O)c3cnn(-c4ccc(C)cc4C)c3C3CCN(C(=O)OC(C)(C)C)CC3)CC2)c1 | inconclusive: 3.98 µM [inhibitor, full curve]
COC(=O)Nc1ccc(S(=O)(=O)N(CCO)CCO)cc1 | inconclusive: 22.4 µM [inhibitor, single point]
O=C(c1ccccc1)N(Cc1nc2ccccc2c(=O)[nH]1)C1CCCC1 | inconclusive: 6.31 µM [inhibitor, single point]
Cc1ccccc1S(=O)(=O)N1CCN(C)CC1 | inconclusive: 10 µM [inhibitor, single point]
Cc1cccc(OCc2ccc(-c3nc(C#N)c(NCc4cccnc4)o3)o2)c1 | inconclusive: 12.6 µM [inhibitor, partial curve]

Structure (SMILES) | Potency
Cc1ccc(S(=O)(=O)Nc2ccccc2C(O)c2ccccc2)cc1 (stereo unspecified) | inconclusive: 22.4 µM [inhibitor, single point]
Cc1cc(C)c(S(=O)(=O)N2CCOC2CNC(=O)C(=O)NCCN(C)C)c(C)c1 (stereo unspecified) | inconclusive: 22.4 µM [inhibitor, single point]
Cc1ccc(NC(=O)Nc2nnc(-c3ccncc3)s2)cc1C | active: 7.94 µM
O=C(CSc1nc(-c2cccc(F)c2)[nH]c1-c1ccccc1)Nc1ccc2c(c1)OCCO2 | inconclusive: 14.1 µM [inhibitor, partial curve, poor fit]
COc1ccc(/C=N/NC(=O)C2COc3ccccc3O2)cc1OC (stereo unspecified) | inactive
CCN1CCS/C1=C/C=C/C1=[N+](CC)CCS1 | inactive
CCN(CC(=O)Nc1ccccc1OC)C(=O)c1ccc2[nH]c3c(c2c1)CC(C)CC3 (stereo unspecified) | inconclusive: 35.5 µM [inhibitor, single point]
Clc1ccc(OCCn2cnc3ccccc32)cc1 | inconclusive: 5.62 µM [inhibitor, single point]
CC1CN(S(=O)(=O)c2ccc(NC(=O)c3cc(-c4ccccc4O)n[nH]3)cc2)CC(C)O1 (stereo unspecified) | inconclusive: 15.8 µM [inhibitor, single point]
CCN(C(=O)c1cc2c(C)nc3ccccc3c2o1)c1cc(Cl)ccc1OC | active: 10 µM
CCCc1cc(C(=O)Nc2cccnc2)no1 | inactive
S=C1SCN(Cc2cccnc2)CN1Cc1cccnc1 | inconclusive: 4.47 µM [inhibitor, partial curve, poor fit]
CC(C)(C)OC(=O)NCCCC[C@H](NC(=O)c1[nH]cnc1C(=O)N[C@@H](Cc1ccccc1)C(=O)OC(C)(C)C)C(=O)OC(C)(C)C | inconclusive: 5.01 µM [inhibitor, full curve, poor fit]
Cc1ccc(NS(=O)(=O)c2ccc(NC(=O)c3cccc(NC(=O)C(C)C)c3)cc2)cc1 | inconclusive: 17.8 µM [inhibitor, partial curve, poor fit]
CC(C)CN(CC(C)C)S(=O)(=O)c1ccc(C(=O)Nc2sc3c(c2C(N)=O)CC(C)(C)NC3(C)C)cc1 | inactive
O=C(NCc1ccc(Cl)cc1)c1ccc(OCC2CCCO2)cc1 (stereo unspecified) | inconclusive: 6.31 µM [inhibitor, single point]
Cc1cccc(NC(=S)NNC(=O)c2ccccc2Br)c1 | inconclusive: 22.4 µM [inhibitor, single point]
CC1Cc2ccccc2N1C(=O)CSc1nnc(-c2ccccc2)c(-c2ccccc2)n1 (stereo unspecified) | inactive
COc1ccccc1N1CCN(C(c2ccc(Cl)cc2)c2nnnn2C(C)(C)C)CC1 (stereo unspecified) | inconclusive: 0.282 µM [inhibitor, full curve, poor fit]
O=S(=O)(/N=C(/Nc1cccnc1)c1ccccc1)c1ccc(F)cc1F | inconclusive: 35.5 µM [inhibitor, single point]
COn1c(-c2ccc(Cl)cc2Cl)nc2ncccc21 | inconclusive: 0.631 µM [inhibitor, partial curve, poor fit]

Structure (SMILES) | Potency
Cc1c(Cl)cccc1NC(=O)Cn1cc(C(=O)c2cccs2)c2ccccc21 | inconclusive: 3.16 µM [inhibitor, partial curve, poor fit]
O=c1c(Cl)c(Cl)cnn1-c1ccccc1 | inconclusive: 35.5 µM [inhibitor, single point]
CCCOc1cccc(C2c3c(oc4ccccc4c3=O)C(=O)N2c2nncs2)c1 (stereo unspecified) | inconclusive: 0.447 µM [inhibitor, partial curve, poor fit]
O=C(Nc1c2c(nn1-c1ccccc1)CS(=O)C2)c1ccc(S(=O)(=O)N2CCOCC2)cc1 (stereo unspecified) | inactive
COc1ccc(NC(=O)CN(C)CC(=O)Nc2cccc(F)c2)cc1Cl | inactive
Cc1cccc(N2CCN(C(=O)C3CCC(=O)N(Cc4ccccc4F)C3)CC2)c1C (stereo unspecified) | inconclusive: 3.16 µM [inhibitor, single point]
Cc1ccc(-c2nc(CS(=O)CC(=O)N3CCN(c4cccc(Cl)c4)CC3)c(C)o2)cc1 (stereo unspecified) | inconclusive: 1.12 µM [inhibitor, partial curve, poor fit]
O=C(Nc1cccc(O)c1)c1noc2c1CCc1ccccc1-2 | inconclusive: 35.5 µM [inhibitor, single point]
CC1CCCCC1NC(=O)C1CCN(c2c3c(nc4ncnn24)CCC3)CC1 (stereo unspecified) | inactive
Cc1ccc2nc(N(CCCN(C)C)C(=O)c3ccc4c(c3)CCCC4)sc2c1 | inconclusive: 25.1 µM [inhibitor, single point]
Cc1ccc2cccc(NC(=O)COc3ccccc3Cl)c2n1 | inconclusive: 6.31 µM [inhibitor, single point]
O=C(NCc1cccc(Cl)c1)c1ccc(S(=O)(=O)Nc2cccc(C(F)(F)F)c2)cc1 | inconclusive: 35.5 µM [inhibitor, single point]
COc1ccccc1Cn1c(C(C)C)nc2ccccc21 | inconclusive: 15.8 µM [inhibitor, partial curve, poor fit]
Cc1ccc(CNC(=O)C2CCN(S(=O)(=O)c3ccc(F)cc3)CC2)cc1 | inconclusive: 35.5 µM [inhibitor, single point]
COc1ccccc1Cc1c(-c2cccc(Cl)c2)nc2ccc(Br)cn12 | inconclusive: 11.2 µM [inhibitor, partial curve, poor fit]
COc1ccc(CN2CCc3c(c(=O)n4ncc(C(=O)N5CCN(c6ccc(F)cc6)CC5)c4n3C)C2)cc1 | inconclusive: 8.91 µM [inhibitor, partial curve]
Cc1ccc2nc(SCC(=O)Nc3ccc(F)cc3F)[nH]c2c1 | inconclusive: 35.5 µM [inhibitor, single point]
COc1cc(-c2c(-c3cc(OC)c(OC)c(OC)c3)noc2C)ccc1F | inconclusive: 501 nM [inhibitor, full curve] and inconclusive: 1.12 µM [inhibitor, full curve, poor fit]
CCN(C(=O)COC(=O)c1cccnc1)c1cccc2ccccc12 | inactive
